Measured values taken from PubChem BioAssay (NCATS).
Several values for one entry are separate records, joined by “and”; a condition that tells them apart may be missing. Identical values can stand only once. This list was built around the results that the source calls inconclusive (neither active nor inactive); the mix of calls is not that of the screen. A potency beside an inconclusive call is a rough fit, not a confirmed value. Activity calls are given as the source filed them. Calls come from the whole dose curve; as a rule, active = well fitted activation curve with a large enough effect in the repeat runs; inconclusive = weak or mixed curves; inactive = flat fitted curve, though single readings scatter.

Assay: qHTS assay for small molecule agonists of the antioxidant response element (ARE) signaling pathway measured by Nrf2-dependant transcriptional activity (AID 720636); for activation: % of control where 0% means no effect
Settings: ARE-luc HepG2, Nrf2 luciferase reporter, 16 h; series mostly up to 92.4 µM; activation: at the top concentration
Text: National Center for Advancing Translational Sciences [NCATS] NIH Chemical Genomics Center [NCGC] U.S. Environmental Protection Agency [EPA] National Institutes of Environmental Health Sciences [NIEHS] National Toxicology Program [NTP] Assay Overview: The antioxidant response element (ARE) signaling pathway plays an important role in the cellular anti-oxidant defense. Exposure to stressors which are exogenous like ionizing radiations, chemicals, U-V light, and endogenous like cell signaling, metabolic processes or inflammation, reactive oxygen species (ROS), can induce oxidative stress in the cells. Oxidative stress has been implicated in the pathogenesis of a variety of diseases ranging from cancer to neurodegeneration. ARE-luc HepG2 cell line (Simmons et al., Current Chemical Genomics, 5:1-12, 2011) has been used for identifying the chemicals that induce oxidative stress. The cell line has an Nrf2-responsive luciferase reporter gene that has been engineered to measure Nrf2-dependant transcriptional activity.
Assay Protocol Summary: For measuring ARE induction; 2,000 ARE-luc HepG2 cells in 5 uL of assay medium containing 1% dialyzed FBS per well were dispensed into white wall/solid bottom 1536-well plates using a Flying Reagent Dispenser (FRD) (Aurora Discovery). The assay plates were incubated for 6 hr at 37 C to allow cell attachment to the well bottom, followed by the transfer of 23 nL compound or DMSO vehicle by a pin tool (Kalypsys). The plates were incubated for 16 hr at 37 C and 5% CO2, followed by the addition of 5 uL of ONE-GloTM luciferase reagent (Promega) into each well using FRD. After 30 min room temperature incubation, plates were read on a ViewLux plate reader (PerkinElmer).
Potency is the fitted concentration of half-maximal effect; tags give direction and shape of the fitted curve.

SMILES | Potency | activation
c1ccc2[nH]c(-c3cscn3)nc2c1 | inconclusive: 19.3 µM [activator, full curve, poor fit] and inconclusive: 4.73 µM [activator, full curve, poor fit] | –
Nc1ccc(N=Nc2ccccc2)c(N)n1 | inconclusive: 3.44 µM [activator, full curve, poor fit] and inconclusive: 2.11 µM [activator, full curve, poor fit] | –
CN(C)c1ccc(N=NS(=O)(=O)O)cc1 | active: 54.5 µM | –
c1cnc2c(c1)ccc1cccnc12 | – | inactive: -0.353%
Nc1ccccc1N | inconclusive: 16.8 µM [activator, partial curve] | –
O=c1c(-c2ccc(O)cc2)coc2cc(O)cc(O)c12 | inconclusive: 5.45 µM [activator, full curve, poor fit] and inconclusive: 5.31 µM [activator, full curve, poor fit] | –
CCCOC(=O)c1ccc(O)cc1 | inconclusive: 24.3 µM [activator, full curve, poor fit] | –
NC(=O)N/N=C/c1ccc([N+](=O)[O-])o1 | inconclusive: 68.6 µM [activator, single point] and inconclusive: 66.8 µM [activator, partial curve, poor fit] | –
O=c1c(-c2ccc(O)cc2)coc2cc(O)ccc12 | inconclusive: 6.11 µM [activator, full curve, poor fit] and inconclusive: 841 nM [activator, full curve, poor fit] | –
O=c1c(O)c(-c2ccc(O)cc2)oc2cc(O)cc(O)c12 | inconclusive: 8.41 µM [activator, full curve, poor fit] and inconclusive: 15.4 µM [activator, partial curve, poor fit] | –
CC(=O)CC(c1ccccc1)c1c(O)c2ccccc2oc1=O (stereo unspecified) | – | inactive: -0.0158%
CN(C)c1ccc2nc3ccc(=[N+](C)C)cc-3sc2c1 | inconclusive: 1.88 µM [activator, full curve, poor fit] | –
O=c1cc(-c2ccc(O)cc2)oc2cc(O)cc(O)c12 | inconclusive: 8.63 µM [activator, full curve] and inconclusive: 10.6 µM [activator, full curve, poor fit] | –
O=C(OCc1ccccc1)c1ccc(O)cc1 | inconclusive: 54.5 µM [activator, partial curve, poor fit] | –
CC(C)(C)c1ccc(O)c(O)c1 | inconclusive: 75 µM [activator, single point] | –
CCN(CC)C(=S)SSC(=S)N(CC)CC | active: 27.3 µM | –
Oc1ccc(O)cc1 | inconclusive: 47.3 µM [activator, partial curve] | –
O=C(O)c1ccccc1Nc1cccc(C(F)(F)F)c1 | – | inactive: -0.126%
CCCCCCCCCCCCCCCC(=O)OC(C)C | – | inactive: 0.195%
Nc1ccc(O)c([N+](=O)[O-])c1 | inconclusive: 33.5 µM [activator, partial curve, poor fit] and inconclusive: 24.3 µM [activator, full curve, poor fit] | –
Cc1ccc(N)cc1O | inconclusive: 59.6 µM [activator, partial curve, poor fit] | –
NS(=O)(=O)c1cc(C(=O)O)c(NCc2ccco2)cc1Cl | inactive | –
O=c1cc(-c2ccccc2)oc2cc(O)cc(O)c12 | active: 13.7 µM | –
CC(C)Cc1ccc(C(C)C(=O)O)cc1 (stereo unspecified) | – | inactive: 0.298%
Oc1ccc(/C=C/c2cc(O)cc(O)c2)cc1 | inconclusive: 4.86 µM [activator, full curve, poor fit] and inconclusive: 5.96 µM [activator, full curve, poor fit] | –
O=c1cc(-c2ccccc2)oc2ccccc12 | inconclusive: 18.8 µM [activator, partial curve] and inconclusive: 21.7 µM [activator, partial curve] | –
